Here are results for 91 compounds from PubChem BioAssay AID360 (National Center for Advancing Translational Sciences (NCATS), 2006).

Each structure is given as a SMILES string. Hit rate of the full screen: of about 48,000 compounds, about 550 (1.1%) were called active. Not shown: some 4% with an inconclusive outcome. Cut-off read from the data, not from the text of the source: active = potency below about 15 µM; inconclusive = mostly about 16 µM to 33 µM; inactive = weaker than that. The list shows a part of the results.
Potency is the fitted concentration of half-maximal effect.

The test concerns the target Lysosomal acid glucosylceramidase (Homo sapiens) (UniProt P04062). Kind of test: Glucocerebrosidase.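 Note: the screen sought inhibitors.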 Conditions: purified enzyme, resorufin glucoside fluorescence (screen aimed at inhibitors), 20 min. In short, it runs like this: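 Normal human glucocerebrosidase (0.2 nM final) was assayed with resorufin β-D-glucopyranoside (30 uM final) in 50mM citric acid/KH2PO4, 10mM sodium taurocholate, 0.01% tween-20, pH 5.9. Compounds were titrated; fluorescence (Ex 548, Em 600) read after 20 min at RT.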
UniProt P04062, sequence (P04062 whole entry, looked up): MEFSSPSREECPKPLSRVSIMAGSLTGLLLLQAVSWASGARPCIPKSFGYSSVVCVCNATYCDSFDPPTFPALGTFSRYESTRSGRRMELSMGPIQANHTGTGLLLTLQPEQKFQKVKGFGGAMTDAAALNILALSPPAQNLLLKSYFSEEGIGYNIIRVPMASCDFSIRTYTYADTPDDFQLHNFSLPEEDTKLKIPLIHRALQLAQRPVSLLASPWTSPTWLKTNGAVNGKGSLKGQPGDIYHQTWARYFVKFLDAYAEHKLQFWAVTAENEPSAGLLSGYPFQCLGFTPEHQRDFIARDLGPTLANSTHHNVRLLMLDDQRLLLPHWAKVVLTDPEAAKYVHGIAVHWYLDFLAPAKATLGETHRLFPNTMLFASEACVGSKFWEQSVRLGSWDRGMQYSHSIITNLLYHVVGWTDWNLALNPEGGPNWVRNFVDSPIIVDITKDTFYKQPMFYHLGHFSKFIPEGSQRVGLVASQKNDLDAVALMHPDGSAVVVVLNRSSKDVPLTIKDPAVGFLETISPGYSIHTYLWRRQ
Consider `Cc1cc(OC(=O)c2ccccc2)n(CCC#N)n1`, for which the Potency was inactive: > 76.9 µM.

Regarding `Cc1ccc2[nH]c3c(c2c1)CN(C(=O)CN1CCN(c2cccc(C)c2C)CC1)CC3`, the Potency was inactive: > 76.9 µM.

As for `CCCCN1C(=O)CC(Nc2ccc(CC)cc2)C1=O` (stereo unspecified), the Potency is inactive: > 76.9 µM.

On to `CCN(CC)CCCNC(=O)C1c2ccccc2Oc2ccccc21`, for which the Potency is inactive: > 76.9 µM.

As to `CCc1ccccc1NC(=O)c1nnn(CC(=O)Nc2ccccc2C)c1N`, the Potency is inactive: > 76.9 µM.

Consider `O=C(NCCCn1ccnc1)c1ccc(Cl)c(S(=O)(=O)N2CCOCC2)c1`, for which the Potency is inactive: > 76.9 µM.

`O=C(Nc1nc(-c2ccc(S(=O)(=O)N3CCCC3)cc2)cs1)c1ccco1`: the Potency result was “inactive”.

As to `c1ccc(N2CCN(c3ncnc4sc5c(c34)CCC5)CC2)cc1`, the Potency is inactive: > 76.9 µM.

On to `Cc1nc(C)c(C(=O)C2=C(O)C(=O)N(CCCn3ccnc3)C2c2ccc(Cl)cc2)s1` (stereo unspecified), for which the Potency is inactive: > 76.9 µM.

In the case of `Clc1ccc(OCc2nc(-c3ccncc3)no2)c(Cl)c1`, the Potency was inactive: > 76.9 µM.

For the compound `OC(CN1CCCCC1)CN(c1ccccc1)c1ccccc1` (stereo unspecified), the Potency was inactive: > 76.9 µM.

Turning to `CCOC(=O)c1cc2c(=O)n3ccccc3nc2n(CCOC)c1=NC(=O)c1ccncc1`, the Potency was inactive: > 76.9 µM.

For `Cc1ccc(-c2cn3c(n2)CCCC3)cc1`, the Potency is inactive: > 76.9 µM.

`Nc1ccc(N2CCOCC2)c(Cl)c1`: the Potency is inactive: > 76.9 µM.

As to `CN(C)c1oc(-c2ccc(OCc3ccccc3)cc2)nc1C#N`, the Potency entry was “inactive”.

Regarding `CCOC(=O)C1CCCN(S(=O)(=O)c2c(C)c(C)cc(C)c2C)C1` (stereo unspecified), the Potency was inactive: > 76.9 µM.

Take `CCC(C)[C@H](N)c1nnc(SCC(=O)Nc2cccc(Cl)c2)o1` (stereo partly specified): the Potency is inactive: > 76.9 µM.

For `O=C1C2CC=CCC2C(=O)N1c1nc2n(n1)C(c1ccccc1)CC(c1ccccc1)N2` (stereo unspecified), the Potency was inactive: > 76.9 µM.

Regarding `CCOc1cccc(-c2nnc(SCC(=O)Nc3cc(C)ccc3OC)n2N)c1`, the Potency is inactive: > 76.9 µM.

As to `Cc1nc(NCCO)c2nnn(Cc3ccccc3F)c2n1`, the Potency is inactive: > 76.9 µM.

Turning to `Cc1cc(C(F)(F)F)nc(SCC(=O)NC2=NC(=O)C(C)S2)n1` (stereo unspecified), the Potency was inactive: > 76.9 µM.

Turning to `Cc1cccc(OCC(=O)Nc2ccccc2N2CCCCC2)c1`, the Potency is inactive: > 76.9 µM.

As for `COc1ccc(C2C3C(=O)N(Cc4ccccc4)C(=O)C3ON2c2ccccc2)c(OC)c1OC` (stereo unspecified), the Potency is inactive: > 76.9 µM.

Turning to `COc1ccc(C2C(C(=O)NCc3ccccc3)=C(C)Nc3ncnn32)cc1OC` (stereo unspecified), the Potency was inactive: > 76.9 µM.

As for `CC(OC(=O)c1cccs1)C(=O)NCc1ccc2c(c1)OCO2` (stereo unspecified), the Potency was inactive: > 76.9 µM.

As to `COc1ccc(NC(=O)c2ccccc2NC(=O)C2CCCO2)cc1` (stereo unspecified), the Potency was inactive: > 76.9 µM.

As for `CCOC(=O)c1cc(-c2ccccc2)sc1NC(=O)CSc1nnnn1C`, the Potency is inactive: > 76.9 µM.

For `CCN(CC)CCOC(=O)c1ccc(NC(=O)COc2cc(=O)n(CC)c3ccccc23)cc1`, the Potency result was “inactive”.

As to `CCOC(=O)C1CCCN(CCC(=O)Nc2ccc3c(c2)CCC3)C1` (stereo unspecified), the Potency is inactive: > 76.9 µM.

Regarding `COc1ccccc1-c1cc(C(=O)NCc2ccc(F)cc2)no1`, the Potency is active: 9.91 µM.

Turning to `CCOC(=O)C(NCc1ccccc1OC)(NC(C)=O)C(F)(F)F` (stereo unspecified), the Potency was inactive: > 76.9 µM.

Turning to `CCOC(=O)c1[nH]c(C)c(/C(O)=C2\C(=O)C(=O)N(CCN(C)C)C2c2cccc(OC)c2OC)c1C` (stereo unspecified), the Potency was inactive: > 76.9 µM.

`Cn1c(=O)c(=O)n(C)c2cc(S(=O)(=O)N3CCC(Cc4ccccc4)CC3)ccc21`: the Potency was inactive: > 76.9 µM.

On to `CCC(=O)OC1(C#CCOc2ccc(OC)cc2)CCN(C)CC1`, for which the Potency was inactive: > 76.9 µM.

With `CCOCCCNC(=O)C1CC(=O)N(C2CCCC2)C1` (stereo unspecified), the Potency was inactive: > 76.9 µM.

Turning to `CCOc1ccc(S(=O)(=O)N2CCN(C(=O)c3cccn3C)CC2)cc1`, the Potency was inactive: > 76.9 µM.

Consider `Cc1ccc(-c2csc(N)n2)s1`, for which the Potency was inactive: > 76.9 µM.

Take `CCOC(=O)Nc1ccc2c(c1)N(C(=O)OC)c1ccccc1CC2`: the Potency was inactive: > 76.9 µM.

For the compound `CCOC(=O)COc1c(OC)cc(Cl)cc1C1NC(=O)NC(C)=C1C(C)=O` (stereo unspecified), the Potency is inactive: > 76.9 µM.

`Cc1nc(N)c(C#N)c(-c2ccccc2)c1C`: the Potency is inactive: > 76.9 µM.

Turning to `CCCCC(=O)Nc1ccc(NC(=O)c2ccccc2OC)cn1`, the Potency is inactive: > 76.9 µM.

With `Cc1ccc(S(=O)(=O)n2nc(-c3ccco3)nc2SCc2ccccc2)cc1`, the Potency is inactive: > 76.9 µM.

For the compound `CCOc1nc(-c2ccccc2)ccc1-c1noc(-c2ccncc2)n1`, the Potency was inactive: > 76.9 µM.

Regarding `CCN(CCCNC(=O)C1CCC(=O)N1Cc1ccc(F)cc1)c1cccc(C)c1` (stereo unspecified), the Potency was active: 14.9 µM.

`CCOC(=O)NC(NC(=O)OCC)C(=O)c1ccc(F)cc1`: the Potency was inactive: > 76.9 µM.

Regarding `O=C1C2C3C=CC(C3)C2C(=O)N1CC1CCCO1` (stereo unspecified), the Potency was inactive: > 76.9 µM.

In the case of `CCCc1nc2sc3c(SCC(=O)NCc4ccco4)ncnc3c2c2c1CCC2`, the Potency result was “inactive”.

On to `COc1ccc(C(=O)N(c2ccccc2)C2C=CS(=O)(=O)C2)cc1` (stereo unspecified), for which the Potency was inactive: > 76.9 µM.

`COc1ccc(OC)c(NC(=O)CCCN2C(=O)C3C4C=CC(C4)C3C2=O)c1` (stereo unspecified): the Potency is inactive: > 76.9 µM.

For the compound `CN(CCC#N)C(=O)COC(=O)c1ccc(Cl)c(S(N)(=O)=O)c1`, the Potency is inactive: > 76.9 µM.

For the compound `COc1cc(C(O)P(=O)(OC2CCCCC2)c2ccc(N(C)C)cc2)cc(OC)c1OC` (stereo unspecified), the Potency is inactive: > 76.9 µM.

Turning to `CCn1nc(C)c(/C=C2\CCCC3=C2OC(N)=C(C#N)C3c2c(C)nn(CC)c2C)c1C` (stereo unspecified), the Potency is inactive: > 76.9 µM.

As for `N#CC1=C(N)Oc2cc3c(cc2C1c1ccc(Cl)cc1)OCO3` (stereo unspecified), the Potency is inactive: > 76.9 µM.

Turning to `CC1CCCCC1NC(=O)c1ccc(N2CCCC2=O)cc1` (stereo unspecified), the Potency is inactive: > 76.9 µM.

For the compound `Cn1c(C(=O)NC2CCCCC2)cc2sccc21`, the Potency was inactive: > 76.9 µM.

Regarding `CN1C(=O)C(CC(=O)N2CCN(C(c3ccccc3)c3ccccc3)CC2)N(C)C1=O` (stereo unspecified), the Potency was inactive: > 76.9 µM.

Consider `Cc1cc(C)n(-c2nc3c(c(=O)[nH]c(=O)n3C)n2CCc2ccccc2)n1`, for which the Potency was inactive: > 76.9 µM.

In the case of `CCCC(=O)Nc1nn(C)c2nc3cc(C)ccc3cc12`, the Potency was inactive: > 76.9 µM.

`COc1cccc(C2NC(=O)NC(C)=C2C(=O)Nc2cccc(C)c2C)c1` (stereo unspecified): the Potency was inactive: > 76.9 µM.

Turning to `CN(C)c1ccc(C(=O)c2ccc(N(C)C)c(N)c2)cc1N`, the Potency is inactive: > 76.9 µM.

`CCOC(=O)Cc1cc(=O)n2[nH]c(C)c(-c3ccc(OC)cc3)c2n1`: the Potency is inactive: > 76.9 µM.

In the case of `Cc1cccc(OCc2nc(-c3nonc3N)no2)c1C`, the Potency was inactive: > 76.9 µM.

Consider `O=C(Cc1ccccc1)Nc1ccc(N2CCOCC2)cc1N1CCOCC1`, for which the Potency was inactive: > 76.9 µM.

As for `CC(C)(C)NC(=O)Cn1nnc(-c2cccs2)n1`, the Potency is inactive: > 76.9 µM.

With `Cc1cc(C)n(C(=O)c2cccc(S(=O)(=O)N3CCCC3)c2)n1`, the Potency was inactive: > 76.9 µM.

For `c1ccc2nc(N3CCCC3)c(N3CCCC3)nc2c1`, the Potency was inactive: > 76.9 µM.

On to `Oc1ccc(-c2nnc(-c3ccc(O)cc3)nn2)cc1`, for which the Potency was inactive: > 76.9 µM.

Consider `Cc1cc(NC(=O)CSc2nc(-c3ccccc3)cs2)no1`, for which the Potency was inactive: > 76.9 µM.

For `CSc1nc(-c2ccco2)nn1C(=O)Cc1ccccc1`, the Potency was inactive: > 76.9 µM.

`Cc1c(-c2nn(C)c(=O)c3ccccc23)oc2ccc(F)cc2c1=O`: the Potency was inactive: > 76.9 µM.

Regarding `COc1ccc(-c2c3c(=O)n(C)c(=O)n(C)c3c3nnc4ccccc4n23)cc1`, the Potency was inactive: > 76.9 µM.

Take `CC(C)Oc1ccccc1-c1nc(SCC(=O)O)n[nH]1`: the Potency was inactive: > 76.9 µM.

Take `O=C(NC1CCCCC1)NC1(C(=O)N2CCN3CCCC3C2)CCCCC1` (stereo unspecified): the Potency is inactive: > 76.9 µM.

With `CCn1c2ccccc2c2nnc(SCC(=O)NCc3cccs3)nc21`, the Potency is inactive: > 76.9 µM.

Turning to `COc1ccc(S(=O)(=O)NC2CC(C)(C)NC(C)(C)C2)c(C)c1C`, the Potency is inactive: > 76.9 µM.

As for `CCOC(=O)N1CCN(C(=O)c2ccc3nc(N4CCC(C)CC4)sc3c2)CC1`, the Potency was inactive: > 76.9 µM.

For the compound `COc1ccc(C(=O)CSc2nnc(-c3ccco3)n2C)cc1`, the Potency was inactive: > 76.9 µM.

Turning to `COc1ccc(-c2cc3nc(C)cc(C)n3n2)c(OC)c1`, the Potency is inactive: > 76.9 µM.

With `O=C(CC1CCCCC1)OCn1nnc2ccccc2c1=O`, the Potency is inactive: > 76.9 µM.

For the compound `Cc1nc(SCC(=O)N2CCOCC2)c2ccsc2n1`, the Potency was inactive: > 76.9 µM.

With `Cc1ccc(S(=O)(=O)n2nc(OC(=O)c3ccco3)cc2N)cc1`, the Potency was inactive: > 76.9 µM.

As for `COc1ccc(C(=O)N2CCCC(c3nc(-c4cccs4)no3)C2)cc1OC` (stereo unspecified), the Potency is inactive: > 76.9 µM.

As to `O=C(Cn1cccc1)N1CCN(C(c2ccccc2)c2ccccc2)CC1`, the Potency was inactive: > 76.9 µM.

Take `Cc1cc(=O)[nH]c(SCc2nc3ccccc3n2Cc2ccccc2)n1`: the Potency was inactive: > 76.9 µM.

Regarding `Clc1ccc2c(c1)c1ccccc1n2CN1CCOCC1`, the Potency was inactive: > 76.9 µM.

`CC(C)OC(=O)CSc1nnc(-c2ccc(C(C)(C)C)cc2)n1N`: the Potency was inactive: > 76.9 µM.

As for `FC(F)(F)c1nnc2sc(-c3ccco3)nn12`, the Potency was inactive: > 76.9 µM.

As to `CCNc1nc(C)nc2c1oc1ccccc12`, the Potency is inactive: > 76.9 µM.

Consider `CS/C(=N\S(=O)(=O)c1cccs1)NC(=O)CSc1nc2ccccc2s1`, for which the Potency is inactive: > 76.9 µM.

With `CCOc1ccccc1OCCCC(=O)N1CCN(S(=O)(=O)c2cccc(F)c2)CC1`, the Potency is inactive: > 76.9 µM.

As to `CCOc1ccc(NC(=O)c2nnn(CC(=O)Nc3ccccc3OCC)c2N)cc1`, the Potency is inactive: > 76.9 µM.
